Out of some 3,200 compounds screened, about 300 (9.4%) showed activity. This is a selection; strong and weak results do not stand in their true shares.
System: A673/TR/shEF
Test: cell viability (LOESS-normalised, relative to median of negative controls) (log2 ratio); higher = more viable cells (less compound effect), active = hit call of the paper (over 3 MAD below the median)
Settings: treatment time: 72 h
Procedure, shortened: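 Doxycycline, present or absent from 24 h before compounds, was used to induce EWS-FLI1 shRNA knockdown in A673/TR/shEF Ewing sarcoma cells at 1,500 per well in 384-well plates. Cells then received library compounds at two or more concentrations, or DMSO controls, for three days. Viability was measured by CellTiter-Glo luminescence on an Envision reader, and per-plate LOESS correction, division by the negative-control median and log2 transformation followed.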

[1] = 0.25 µM, library screen: screen1, EWS-FLI1 expression: high (no doxycycline)
[2] = 0.25 µM, library screen: screen1, EWS-FLI1 expression: low (doxycycline-induced shRNA knockdown)
[3] = 2.5 µM, library screen: screen1, EWS-FLI1 expression: high (no doxycycline)
[4] = 2.5 µM, library screen: screen1, EWS-FLI1 expression: low (doxycycline-induced shRNA knockdown)
[5] = 0.25 µM, library screen: screen2, EWS-FLI1 expression: high (no doxycycline)
[6] = 0.25 µM, library screen: screen2, EWS-FLI1 expression: low (doxycycline-induced shRNA knockdown)
[7] = 2.5 µM, library screen: screen2, EWS-FLI1 expression: high (no doxycycline)
[8] = 2.5 µM, library screen: screen2, EWS-FLI1 expression: low (doxycycline-induced shRNA knockdown)
[9] = 0.103 µM, library screen: screen3, EWS-FLI1 expression: high (no doxycycline)
[10] = 0.103 µM, library screen: screen3, EWS-FLI1 expression: low (doxycycline-induced shRNA knockdown)
[11] = 0.308 µM, library screen: screen3, EWS-FLI1 expression: high (no doxycycline)
[12] = 0.308 µM, library screen: screen3, EWS-FLI1 expression: low (doxycycline-induced shRNA knockdown)
[13] = 0.926 µM, library screen: screen3, EWS-FLI1 expression: high (no doxycycline)
[14] = 0.926 µM, library screen: screen3, EWS-FLI1 expression: low (doxycycline-induced shRNA knockdown)
[15] = 2.8 µM, library screen: screen3, EWS-FLI1 expression: high (no doxycycline)
[16] = 2.8 µM, library screen: screen3, EWS-FLI1 expression: low (doxycycline-induced shRNA knockdown)
[17] = 8.3 µM, library screen: screen3, EWS-FLI1 expression: high (no doxycycline)
[18] = 8.3 µM, library screen: screen3, EWS-FLI1 expression: low (doxycycline-induced shRNA knockdown)
[19] = 25 µM, library screen: screen3, EWS-FLI1 expression: high (no doxycycline)
[20] = 25 µM, library screen: screen3, EWS-FLI1 expression: low (doxycycline-induced shRNA knockdown)

NC(=O)c1ccc[n+]([C@@H]2O[C@H](COP(=O)([O-])OP(=O)(O)OC[C@H]3O[C@@H](n4cnc5c(N)ncnc54)[C@H](O)[C@@H]3O)[C@@H](O)[C@H]2O)c1
cell viability (log2) [1]: inactive: 0.115 | cell viability (log2) [2]: inactive: 0.054 | cell viability (log2) [3]: inactive: 0.157 | cell viability (log2) [4]: inactive: 0.00843

Oc1ccc(C2CNCc3sccc32)cc1O (stereo not given)
cell viability (log2) [5]: inactive: 0.169 | cell viability (log2) [6]: inactive: 0.0314 | cell viability (log2) [7]: inactive: 0.167 | cell viability (log2) [8]: inactive: 0.0867

COc1ccc(CN(CCN(C)C)c2ncccn2)cc1
cell viability (log2) [1]: inactive: 0.0875 | cell viability (log2) [2]: inactive: 0.088 | cell viability (log2) [3]: inactive: 0.119 | cell viability (log2) [4]: inactive: 0.139

N=C(N)SCCc1ccc(CCSC(=N)N)cc1
cell viability (log2) [5]: inactive: 0.11 | cell viability (log2) [6]: inactive: 0.0349 | cell viability (log2) [7]: inactive: 0.176 | cell viability (log2) [8]: inactive: 0.078

COc1c2ccoc2cc2oc(C)cc(=O)c12
cell viability (log2) [1]: inactive: 0.0282 | cell viability (log2) [2]: inactive: 0.0455 | cell viability (log2) [3]: inactive: 0.0257 | cell viability (log2) [4]: inactive: -0.0152

C1CCN2C[C@H]3C[C@H](CN4CCCC[C@@H]34)[C@H]2C1
cell viability (log2) [1]: inactive: 0.0574 | cell viability (log2) [2]: inactive: 0.016 | cell viability (log2) [3]: inactive: 0.142 | cell viability (log2) [4]: inactive: 0.0171

Cc1ccc(C)c(OCCCC(C)(C)C(=O)O)c1
cell viability (log2) [9]: inactive: 0.159 | cell viability (log2) [10]: inactive: -0.0254 | cell viability (log2) [1]: inactive: 0.0797 | cell viability (log2) [2]: inactive: 0.0418 | cell viability (log2) [11]: inactive: 0.0792 | cell viability (log2) [12]: inactive: 0.066 | cell viability (log2) [13]: inactive: 0.0799 | cell viability (log2) [14]: inactive: 0.0486 | cell viability (log2) [3]: inactive: 0.187 | cell viability (log2) [4]: inactive: 0.0489 | cell viability (log2) [15]: inactive: 0.0969 | cell viability (log2) [16]: inactive: 0.0664 | cell viability (log2) [17]: inactive: 0.0304 | cell viability (log2) [18]: inactive: 0.0281 | cell viability (log2) [19]: inactive: 0.106 | cell viability (log2) [20]: inactive: 0.0901

O=c1[nH]c2cc(Cl)ccc2c(O)c1-c1cccc(Oc2ccccc2)c1
cell viability (log2) [5]: inactive: 0.13 | cell viability (log2) [6]: inactive: 0.0448 | cell viability (log2) [7]: inactive: 0.0586 | cell viability (log2) [8]: inactive: 0.0631

C=CCN1CCc2c(cc(O)c(O)c2Cl)C(c2ccccc2)C1 (stereo not given)
cell viability (log2) [5]: inactive: 0.21 | cell viability (log2) [6]: inactive: 0.0813 | cell viability (log2) [7]: inactive: 0.254 | cell viability (log2) [8]: inactive: 0.104

O=C(O)C[C@H](O)C[C@H](O)/C=C/c1c(C2CC2)nc2ccccc2c1-c1ccc(F)cc1
cell viability (log2) [13]: active: -0.533 | cell viability (log2) [14]: active: -0.345 | cell viability (log2) [15]: active: -1.53 | cell viability (log2) [16]: active: -0.986 | cell viability (log2) [17]: active: -2.09 | cell viability (log2) [18]: active: -1.25 | cell viability (log2) [19]: active: -3.51 | cell viability (log2) [20]: active: -3.56

COC(=O)c1c(C)c2c(c(C)c1O)OC(=O)c1c(C)c(Cl)c(O)c(Cl)c1O2
cell viability (log2) [1]: inactive: 0.0528 | cell viability (log2) [2]: inactive: 0.162 | cell viability (log2) [3]: inactive: 0.116 | cell viability (log2) [4]: inactive: 0.202

COc1cc2c(cc1OC)[C@@H]1Cc3ccc(OC)c(OC)c3CN1CC2
cell viability (log2) [1]: inactive: 0.0651 | cell viability (log2) [2]: inactive: -0.0137 | cell viability (log2) [3]: inactive: 0.157 | cell viability (log2) [4]: inactive: 0.151

O=C(CCCN1CCC(O)(c2ccc(Cl)cc2)CC1)c1ccc(F)cc1
cell viability (log2) [9]: inactive: 0.03 | cell viability (log2) [10]: inactive: 0.0457 | cell viability (log2) [1]: inactive: 0.135 | cell viability (log2) [2]: inactive: 0.162 | cell viability (log2) [5]: inactive: 0.115 | cell viability (log2) [6]: inactive: 0.105 | cell viability (log2) [11]: inactive: 0.167 | cell viability (log2) [12]: inactive: 0.116 | cell viability (log2) [13]: inactive: 0.112 | cell viability (log2) [14]: inactive: 0.0484 | cell viability (log2) [3]: inactive: 0.201 | cell viability (log2) [4]: inactive: 0.278 | cell viability (log2) [7]: inactive: 0.142 | cell viability (log2) [8]: inactive: -0.00685 | cell viability (log2) [15]: inactive: 0.0784 | cell viability (log2) [16]: inactive: 0.164 | cell viability (log2) [17]: inactive: 0.0699 | cell viability (log2) [18]: inactive: 0.0466 | cell viability (log2) [19]: inactive: 0.0922 | cell viability (log2) [20]: inactive: 0.166

COc1ccc2c(c1)c(CC(=O)O)c(C)n2Cc1ccc(Cl)cc1
cell viability (log2) [5]: inactive: 0.107 | cell viability (log2) [6]: inactive: 0.126 | cell viability (log2) [7]: inactive: 0.0273 | cell viability (log2) [8]: inactive: 0.0728

CC1(C)[C@@H](O)CC[C@]2(C)[C@H]3C(=O)C=C4[C@@H]5C[C@@](C)(C(=O)O)CC[C@]5(C)CC[C@@]4(C)[C@]3(C)CC[C@@H]12
cell viability (log2) [1]: inactive: 0.0754 | cell viability (log2) [2]: inactive: 0.0366 | cell viability (log2) [3]: inactive: 0.0468 | cell viability (log2) [4]: inactive: 0.088

COc1ccccc1CN1CCN(Cc2ccc(OC)c(OC)c2OC)CC1
cell viability (log2) [1]: inactive: 0.0684 | cell viability (log2) [2]: inactive: 0.104 | cell viability (log2) [3]: inactive: 0.0567 | cell viability (log2) [4]: inactive: 0.0723

COc1ccc(-c2coc3cc(O)ccc3c2=O)c(O)c1O
cell viability (log2) [1]: inactive: 0.0601 | cell viability (log2) [2]: inactive: 0.0374 | cell viability (log2) [3]: inactive: 0.0945 | cell viability (log2) [4]: inactive: 0.0557

COc1c(C)c2c(c(O)c1C/C=C(\C)CCC(=O)OCCN1CCOCC1)C(=O)OC2
cell viability (log2) [9]: inactive: 0.051 | cell viability (log2) [10]: inactive: 0.0315 | cell viability (log2) [11]: inactive: 0.00041 | cell viability (log2) [12]: inactive: 0.00916 | cell viability (log2) [13]: inactive: -0.00635 | cell viability (log2) [14]: inactive: 0.0426 | cell viability (log2) [15]: inactive: 0.0529 | cell viability (log2) [16]: inactive: 0.0135 | cell viability (log2) [17]: inactive: -0.0785 | cell viability (log2) [18]: inactive: 0.0651 | cell viability (log2) [19]: active: -0.48 | cell viability (log2) [20]: active: -0.33

NCCS
cell viability (log2) [1]: inactive: 0.133 | cell viability (log2) [2]: inactive: 0.0651 | cell viability (log2) [5]: inactive: 0.14 | cell viability (log2) [6]: inactive: 0.0819 | cell viability (log2) [3]: inactive: 0.116 | cell viability (log2) [4]: inactive: -0.00976 | cell viability (log2) [7]: inactive: 0.0277 | cell viability (log2) [8]: inactive: -0.00818

Source: the supplement of paper PMC6089552
